Reference: PMC4850295, “Using a Genetically Encoded Sensor to Identify Inhibitors of Toxoplasma gondii Ca^2+ Signaling” (The Journal of Biological Chemistry, 2016)
The entries are a selection whose mix differs from that of the whole data set.

Tested on: T1, GCaMP5-expressing T. gondii
T1 construct: whole extracellular parasites expressing GCaMP5 Ca2+ sensor
Parameters: species or system GCaMP5-expressing Toxoplasma gondii, extracellular; GCaMP5 fluorescence (cytosolic Ca2+) after 100 uM zaprinast in compound-pretreated extracellular parasites, background-subtracted, relative to zaprinast alone
Conditions: 100 uM zaprinast stimulation; 10 min pretreatment; mean of two replicates; 0.23 h
Protocol: GCaMP5-expressing parasites were suspended in Ringer's solution at 4 × 10^7 parasites/ml, and 50 μl of parasites were applied to each well of a 96-well plate (Costar, catalog no. 3631). […] Parasites were then treated with 100 μM zaprinast or 0.1% DMSO as a vehicle control and incubated at 37 °C with 5% CO2 for an additional 4 min before measuring fluorescence with excitation and emission wavelengths of 485 and 525 nm, respectively, on a SpectraMax M3 (Molecular Devices). Basal fluorescence, measured from untreated parasites, was subtracted from all values, and results were expressed as -fold change from parasites treated only with zaprinast. Z′ factors were determined from (i) parasites treated with zaprinast versus untreated parasites and (ii) parasites treated with a final concentration of 1 μM Cpd2 or a vehicle control followed by zaprinast, using the formula, Z′ = 1 − 3(σp + σn)/(|μp − μn|), where σp and σn indicate S.D. values of positive and negative controls, and μp and μn indicate the means of positive and negative controls, respectively. […] We predicted that the zaprinast response measured in GCaMP5-expressing parasites could form the basis for a phenotypic screen. Such a screen would benefit from the known importance of Ca^2+ signaling in parasite biology along with the reported success rate of cell-based phenotypic assays. We designed a screen wherein extracellular GCaMP5-expressing parasites were pretreated with compounds for 10 min before stimulation with zaprinast, and parasite fluorescence was measured 4 min later. We expected that compounds that interfered with the zaprinast response would reduce fluorescence. We calculated a Z′-factor for this screen to determine its dynamic range and suitability to high throughput screening. To do so, we compared zaprinast-treated parasites to untreated parasites or those pretreated with the PKG inhibitor Compound 2 (Cpd2) ([55]). […] We obtained the compound libraries published kinase inhibitor sets PKIS1 ([57]) and PKIS2 (unpublished), from GlaxoSmithKline and applied our phenotypic screen to the 823 ATP mimetics represented in these collections (Fig. 2B and supplemental Table S1). The compounds were screened at a single 10 μM dose with two biological replicates.

SMILES | fold change in fluorescence relative to zaprinast alone
CS(=O)(=O)c1ccccc1-c1nc(-c2ccc(F)cc2)c(-c2ccncc2)[nH]1 [SB-213663] | 0.2105
Cc1ccc(C)c(Oc2nccc(-c3c(-c4ccc(F)cc4)ncn3C3CCNCC3)n2)c1 [SB-284852-BT] | 1.077
O=C(O)c1ccc(-c2nc(-c3ccc(F)cc3)c(-c3ccncc3)[nH]2)cc1 [SB-202620] | 0.9742
O=C1NC(=O)C(c2ccccc2Cl)=C1Nc1cc(Cl)c(O)c(Cl)c1 [SB-390523] | 1.133
COc1cccc(C2=C(Nc3ccc(SC)cc3)C(=O)NC2=O)c1 [SB-331032] | 0.837
COc1ccc(C2=C(Nc3cccc(Cl)c3)C(=O)NC2=O)cc1 [SB-326892] | 1.023
CS(=O)(=O)c1ccc(Oc2nccc(-c3c(-c4ccc(F)cc4)ncn3C3CCNCC3)n2)cc1 [SB-254169] | 1.195
O=C1NC(=O)C(c2ccccc2)=C1Nc1ccccc1 [SKF-62604] | 1.098
O=C1NC(=O)C(c2ccccc2Cl)=C1Nc1ccccc1 [SB-376715] | 0.9426
O=C1NC(=O)C(c2ccc(Cl)cc2)=C1Nc1ccccc1 [SB-317661] | 0.7135
O=C1NC(=O)C(c2ccccc2Cl)=C1Nc1cccc(C(=O)O)c1 [SB-390526] | 1.153
O=C1NC(=O)C(c2ccc(Cl)cc2)=C1Nc1cccc(O)c1 [SB-333613] | 0.5564
O=C1NC(=O)C(c2ccccc2)=C1Nc1cc(Cl)c(O)c(Cl)c1 [SB-390530] | 1.139
CC(C)(C)c1ccc(Oc2nccc(-c3c(-c4ccc(F)cc4)ncn3C3CCNCC3)n2)cc1 [SB-278538] | 0.6481
CSc1ccc(NC2=C(c3cccc(Cl)c3)C(=O)NC2=O)cc1 [SB-341528] | 1.248
COc1ccccc1C1=C(Nc2ccccc2)C(=O)NC1=O [SB-376719] | 1.162
Fc1ccc(-c2ncn(C3CCNCC3)c2-c2ccnc(Oc3cccc(F)c3)n2)cc1 [SB-251505] | 0.9066
O=C1NC(=O)C(c2ccc(Cl)cc2)=C1Nc1cccc(C(=O)O)c1 [SB-360737] | 1.092
Fc1ccc(-c2ncn(C3CCNCC3)c2-c2ccnc(Oc3ccc(Cl)cc3)n2)cc1 [SB-278539] | 1.019
Fc1ccc(-c2ncn(C3CCNCC3)c2-c2ccnc(Oc3cccc(C(F)(F)F)c3)n2)cc1 [SB-253226] | 1.342
Cc1cc(C)cc(Oc2nccc(-c3c(-c4ccc(F)cc4)ncn3C3CCNCC3)n2)c1 [SB-284851-BT] | 1.079
O=C1NC(=O)C(c2ccccc2)=C1Nc1ccc(Cl)c(C(=O)O)c1 [SB-390532] | 0.8352
COc1ccccc1C1=C(Nc2ccc(O)c(Cl)c2)C(=O)NC1=O [SB-381904] | 0.9667
O=C1NC(=O)C(c2ccc(Cl)cc2)=C1Nc1ccc(O)c(Cl)c1 [SB-405367] | 1.015
COc1ccccc1Oc1nccc(-c2c(-c3ccc(F)cc3)ncn2C2CCNCC2)n1 [SB-251527] | 1.133
O=C1NC(=O)C(c2cccc([N+](=O)[O-])c2)=C1Nc1cc(Cl)c(O)c(Cl)c1 [SB-358518] | 1.018
